Source: patent US20260234738A1
Changes are numbered by the printed parent chain.

B1: mAb10965 (antibody)
heavy: EVQLVESGGGLIQPGGSLRLSCAASVFTVSYNYMSWVRQAPGKGLEWVSVIYSGGSTYYADSVKGRFTISRDNSKNTLYLQMNSLRAEDTAVYYCARALPGWGGSFEYFDYWGQGTLVTVSS[human IgG1 constant region left out]
light: [about 100 residues left out][about 100 residues left out]
B2: mAb10989 (antibody)
heavy: QVQLVQSGAEVKKPGASVKVSCKASGYIFTGYYMHWVRQAPGQGLEWMGWINPNSGGANYAQKFQGRVTLTRDTSITTVYMELSRLRFDDTAVYYCARGSRYDWNQNNWFDPWGQGTLVTVSS[human IgG1 constant region left out]
light: QSALTQPASVSGSPGQSITISCTGTSSDVGTYNYVSWYQQHPGKAPKLMIFDVSNRPSGVSDRFSGSKSGNTASLTISGLQAEDEADYYCSSFTTSSTVVFGGGTKLTVLGQPKAAPSVTLFPPSSEELQANKATLVCLISDFYPGAVTVAWKADSSPVKAGVETTTPSKQSNNKYAASSYLSLTPEQWKSHRSYSCQVTHEGSTVEKTVAPTECS
B3: mAb11006 (antibody)
heavy: EVQLVESGGGLVQPGGSLRLSCAASGFIVSRNYMSWVRQAPGKGLEWVSVIYSGGSTFYADSVKGRFTISRHNSKNTLYLQMNSLKAEDTAVYYCARELRGYFDYWGQGTLVTVSS[human IgG1 constant region left out]
light: DIQLTQSPSFLSASVGDRVTITCWASQGISSYLAWYQQKPGKAPKLLIYAASTLQSGVPSRFSGSGSGTEFTLTISSLQPEDFATYYCQLLNSYPYTFGQGTKLEIKRTVAAPSVFIFPPSDEQLKSGTASVVCLLNNFYPREAKVQWKVDNALQSGNSQESVTEQDSKDSTYSLSSTLTLSKADYEKHKVYACEVTHQGLSSPVTKSFNRGEC
B4: mAb10939 (antibody)
heavy: EVQLVESGGGLVQPGGSLRLSCAASGLTVSSNYMNWVRQVPGKGLEWVSVIYSGGSKFYVDSVKGRFTISRHNSKNTLYLQMNSLRPEDTAVYYCTRDAQYYGMDVWGQGTTVTVSS[human IgG1 constant region left out]
light: DIQMTQSPSSLSASVGDRVTITCRASQSISTYLHWYQQKPGEAPKLLIYAASSLQSGVPSRFSGSGSGTDFTLTISSLQPEDFATYYCQQSYSTPPEIFGQGTKLEIKRTVAAPSVFIFPPSDEQLKSGTASVVCLLNNFYPREAKVQWKVDNALQSGNSQESVTEQDSKDSTYSLSSTLTLSKADYEKHKVYACEVTHQGLSSPVTKSFNRGEC
B5: mAb10915 (antibody)
heavy: B3 heavy with I28T, R31S, S35N, K86R, A87P, E98D, R100G
light: [about 100 residues left out][about 120 residues left out]
B6: mAb10984 (antibody)
heavy: EVQLVESGGGLVQPGGSLRLSCAASGLTVNRNYMSWVRQAPGKGLEWVSLIYSGGSTYYADSVKGRFTISRDNSKNTLYLQMNSLRLEDTAVYYCARGELGIPYGMDVWGQGTTVTVSS[human IgG1 constant region left out]
light: QSVLTQPPSVSAAPGQKVTISCSGSSSNIGNNYVSWYQQLPGTAPKLLIYDNNKRPSGIPDRFSGSKSGTSATLGITGLQTGDEADYYCGTWDSSLSAGVFGGGTKLTVLGQPKAAPSVTLFPPSSEELQANKATLVCLISDFYPGAVTVAWKADSSPVKAGVETTTPSKQSNNKYAASSYLSLTPEQWKSHRSYSCQVTHEGSTVEKTVAPTECS
B7: mAb10985 (antibody)
heavy: EVQLVESGGGLVQPGRSLRLSCAASGFTFDDYAMHWVRQAPGKGLEWVSGISWNRGSIGYADSVKGRFTISRDNAKNSLYLQMSSLRAEDTALYYCAKDGERWDSVVVPSARNGMDVWGQGTTVTVSS[human IgG1 constant region left out]
light: QSVLTQPPSVSGAPGQRVTISCTGSSSNIGAGYDVHWYQQLPGTAPKLLIYGNSNRPSGVPDRFSGSKSGTSASLAITGLQAEDEADYYCQSYDSSLSGSYVFGTGTKVTVLGQPKAAPSVTLFPPSSEELQANKATLVCLISDFYPGAVTVAWKADSSPVKAGVETTTPSKQSNNKYAASSYLSLTPEQWKSHRSYSCQVTHEGSTVEKTVAPTECS
B8: mAb10982 (antibody)
heavy: EVQLVESGGGLVQPGGSLRLSCAASGLTVSSNYMSWVRQAPGKGLEWVSVIYSGGTTYYADSVKGRFTISRHNSKNTLSLQMNSLRAEDTAVYYCARGEGANYYGMDVWGQGTTVTVSS[human IgG1 constant region left out]
light: B7 light with A31T, S100Y, Y101V, T105G, V109L
B9: mAb10971 (antibody)
heavy: EVQLVESGGGLIQPGGSLRLSCAASGVTVSSNYMSWVRQAPGKGLEWVSVIYSGGSTFYSDSVKGRFSISRDNSKNTLYLQMNSLRAEDTAVYYCARDLYYYGMDVWGQGTTVTVSS[human IgG1 constant region left out]
light: DIQLTQSPSFLSASVGDRVTITCRASQGISTYLAWYQQKPGKAPKLLIYAASTLQSGVPSRFSGSGSGTEFTLTISSLQPEDFATYYCQQLDSYPGLTFGGGTKVEIKRTVAAPSVFIFPPSDEQLKSGTASVVCLLNNFYPREAKVQWKVDNALQSGNSQESVTEQDSKDSTYSLSSTLTLSKADYEKHKVYACEVTHQGLSSPVTKSFNRGEC
B10: mAb11008 (antibody)
heavy: EVQLVESGGGLVQPGGSLRLSCAASGFTVSSNYMTWVRQAPGKGLEWVSVIYSGGSTFYADSVKGRFTISRHNSENTLYLQMNSLRAEDTAVYYCARDLAAAGTDYWGQGALVTVSS[human IgG1 constant region left out]
light: B3 light with E81D, L90H, P95L
B11: mAb10998 (antibody)
heavy: EVQLVESGGGLVHPGGSLRLSCAASGLTVSSNYMSWVRQAPGKGLEWVSVIYSGGSTYYADSVKGRFTISRHNSKNTLFLQMNSLRAEDTAVYYCARDRPITGTTLDVWGQGTTVTVSS[human IgG1 constant region left out]
light: B4 light with S12F, T31S, H34N, E42K, T85F, S91T, E97I, I98T, K104R

Target: UNMODIFIED-SARS-CoV-2 Spike Protein (RBD)(R319-F541).mmH (SARS-CoV-2)
Assay: Luminex bead binding, antibody supernatant
Details: remark: other sources report otherwise

| Binder | binding signal (MFI) |
| --- | --- |
| B1 | 28100 MFI |
| B2 | 19700 MFI |
| B3 | 2040 MFI |
| B4 | 33600 MFI |
| B5 | 36700 MFI |
| B6 | 25800 MFI |
| B7 | 27400 MFI |
| B8 | 27500 MFI |
| B9 | 27400 MFI |
| B10 | 7100 MFI |
| B11 | 2560 MFI |
